# Experimental data as given in publication PMC10726135.
# The list shows a part of the results. At the low end of the ranking the order means little. Measured with an extract: partners may take part in the binding.
# Target: T1, HNF4alpha8 (COS-7 nuclear extract) (UniProt P41235-5)
# T1 sequence: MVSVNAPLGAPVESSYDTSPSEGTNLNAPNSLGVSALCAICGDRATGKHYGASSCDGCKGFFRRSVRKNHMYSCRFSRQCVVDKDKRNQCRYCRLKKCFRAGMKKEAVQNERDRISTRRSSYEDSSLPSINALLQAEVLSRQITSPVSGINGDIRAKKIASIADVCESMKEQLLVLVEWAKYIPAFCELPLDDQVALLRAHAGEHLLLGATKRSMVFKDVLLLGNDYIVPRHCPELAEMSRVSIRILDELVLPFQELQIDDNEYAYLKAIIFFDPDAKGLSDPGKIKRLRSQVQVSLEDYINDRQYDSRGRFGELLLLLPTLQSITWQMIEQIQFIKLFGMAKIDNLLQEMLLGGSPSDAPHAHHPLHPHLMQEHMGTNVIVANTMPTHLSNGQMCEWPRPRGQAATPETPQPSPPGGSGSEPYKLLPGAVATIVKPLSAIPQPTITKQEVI
# Assay: protein-binding microarray
# Details: COS-7 nuclear extract on double-stranded Agilent 4x180k PBM; binding buffer, salt, pH and temperature not given; high values mean tight binding; double strand, one strand shown; sequences stand for … in …GCCTAGGGAGATTAGAGTATCGGTCGA
row,Sequence,binding signal (log2 normalized intensity)
1,GAGGCTGAAATGGTTACAAAGGTCACACTC,5.67
2,AATTCCCTGCAAGGACAAAGGTCATGTTTT,7.11
3,AAGGCTAGTCTTCTTTGGGGCTTAGATAGC,-0.856
4,CGACCACTGGCTGAACAGGGTCAGTGCAAT,1.54
5,TCCAAAGGTCAATGCCAGGACCCTGTGGGA,3.57
6,CCCGCGCGTGGCCCAGCATGCCCCGCGCCG,-0.772
7,CCTAAGCCCCATGCTGATAAGGGCCACAGA,-0.943
8,CGGCTTGCGTCCCCAGGTGAACTCAGTCCT,1.24
9,GGTGGCAGCAGCAGGCAGGGACTTTGGCCC,6.19
10,GTGCAGGGGGCGAGCATGGCCGCTCCGCGA,-1.29
11,CCAAGATACCACTGATAAGGTTCCAGCAAA,-1.25
12,GACAAGAAAAGTAATGAAAGGAAATCATTC,-1.13
13,TTGAAACCTAAGATGTCACAGGCAAGCAAG,-1.31
14,TCTAAGCCCTTATCAAAAAGATAAGGACAC,-1.25
15,GGGAGGAGGGCAACCTTTGAACTGGGTCTT,4.84
16,AGGGGGCGGGCGGACTCCGAGCCATTTTGG,-1.34
17,TACGCTGTCGTTTGCTTAGTCTTATCTGAG,0.677
18,GTGTGGTGCAGATTCCACACTGGCTAGATA,-1.22
19,AAAGATACTCTCATCACTTAGGATATTCCA,-1.41
20,GACCTTTATGGGAAAAAAAAACCACTGTGT,0.594
21,ACCTGTTATTTGCGCCTCCCTAGAGCAGCA,-1.39
22,GTCTTGCTTTGATGTTGATGGTTGCTGACT,1.14
23,GATTTCATCTAAGGACAAACTTTGTCACTG,1.46
24,GAAACACTCTGTTTGTAAAGTCTACAAGTG,0.85
25,ATTTGAGGGTGACACTGCTCTCTCCAGGGG,-0.308

row,Sequence,binding signal (log2 normalized intensity)
1,AGGCCGGAAAAGATTAGATTGCTCAGAGGC,-1.04
2,GACACAAAGAGACAAAGCTTTGAAGATGCT,-1.35
3,ACACTTGTATGACCTTTGTTTTATTGTCAT,4.51
4,ATAATCAGAGGCCTGATTATCAGGTGCCTG,0.101
5,ACCTTGATGCTGGACTTCAGCCTCCAGAAC,4.55
6,TGATAAAGGGGGCAAAGGGCATGGGCAGCT,4.41
7,ATGTGCTTCATGGAGAGAATTCCCATCCCA,-1.31
8,GGTCCCTAGGAGATACGCCTGAACTTTGAT,4.18
9,TCTTTAGGCCAAACAAAAATATGGACTTTG,6.57
10,GTAGGACAGAGTAAAGCCACTGCCTAGATA,-1.28
11,TTCCTAACAGTGAATGTTTCGTAATATTTA,-0.755
12,CAAATTAAACAGCATTTGTTTTAAGTTCAT,0.628
13,ACAGGGTGGCTTTGATCTGGGTGGGGGTGG,0.153
14,TTTAGATTTTCTCACTCTAAAGGAAGGGAT,-1.33
15,GGAAAACTACCCCTGCCTAAACAAGGCAGA,-1.21
16,ATTCCTTTTTCACTGCTCACAGGTTGTACT,2.15
17,ATTAAACACAGTTGCCTATGCCCTTTGAAA,3.08
18,ACATTCCTTGTGTTTTGGGGACAGAAGGCA,1.18
19,GAAAGAGGTCAATGTACTTACAGCTGGAAG,1.49
20,AGTCTTGAGTCCCAAAGTCCAAAGGCAGTC,3.61
21,ACATTCCAGAAAAGGCCTAAAAGGTTATCT,0.598
22,TTGGAGAATGCCTTTTGTGTAGGAGTACAC,1.46
23,GGTTCTGCAGGTTCATGGGAGAGCACTTGG,-0.0597
24,TGACCTTTGCCTCATTCTTATTGCCTCATG,4.2
25,CTACAGAACCTCCCTCCCCATCTCCCCAGA,5.18

row,Sequence,binding signal (log2 normalized intensity)
1,AAGCCCAGAACACTCTACCCCCTCCCACTT,4.27
2,ACATACCTTAGGCTGTGCATATTGGTTTAC,1.36
3,TCTGTCTTGGACTGCGAAAGATAAAAGGCC,0.327
4,GAGGATGACCTTCCCTGCAGAAAAGGCCCC,2.02
5,TTTGTAACTTCTTGGCCTGCATAGCACTTT,1.28
6,GGCACTCCCAGGATAATGGAGAAGATAAGC,-1.3
7,TGTGAGTCACAAACAGTACTGACATCTATC,-0.859
8,AGCTCTTTTGAACCCAAGGCCAAACACGGA,1.04
9,TTGGTCTGAACCTCATCTGTGTAGAAATTG,1.49
10,GATGCAGAACAAGGTAGCCACAGAATGACT,-1.32
11,TGGGTATGTCTGTAGGTAAGCACAAAGTAC,2.16
12,TTCACATTCCATCATCACGGTGGACATTGT,3.47
13,CCTTTCATGTACTGTTCAGTTCCTATTTCA,0.81
14,TATGTGCTGACTGACTCCTGTTACTTCCAC,0.0957
15,AAGGAATAAAATAGCTGCCTGTGTGTTCTG,0.798
16,GTGCTGACTAAGAGGAGAAGCAAATGAAAA,-1.33
17,AGATAAATGCCTTAGCTGTGACCATCTCCT,-1.33
18,AGTCTAACTTTGGACTTTTATGTTAAGATC,2.93
19,TCCAAACTGCAACCTGATAAGATTTTAGAA,-1.31
20,ATGGACATAGTAACAACCTAAATCAGAGCA,-1.4
21,AAGCGGCTGGCTTTAAGGTCACATAGCAGG,1.03
22,GGGCCACTCAGTTGAAGTTCCAGAAGACTA,-1.35
23,GTCAAAGGTTGATGGTATGTTTCAGCCAAG,0.0323
24,TGCAAGGCTGTTGGCAGATTAGATATATCT,-0.884
25,GTCACTGTATGCCCGAAAGACGCGGAGCGG,0.452

row,Sequence,binding signal (log2 normalized intensity)
1,TTTGAGGGCTCAAAGGTTACCACCCAGGAG,4.22
2,AAGGTGAAGCCCAGCAGCTCCAGGAGACGT,-1.04
3,GCACGTTAGAGAAAAAGCCCAAGAAACTTC,-1.29
4,GCAATAAACTCCGTTATCACTCCTGGTTGG,-0.605
5,CTTGGCTGTGTCCCTTGACCAAAGGTCACT,7.67
6,TGGAATACAGCAGGGTAGAAAAGAGTTAAA,-1.22
7,CTCAGTATGGCAACCTTTGTCCTGCTGAGG,4.48
8,AGGCTCAGTGGGCGTTGACTGATCCCTCTG,0.99
9,ATGGCTGCAGCTCTTCCACGTGAGATAAGC,-1.28
10,GTAGACTAAAACCCATATCTGACTGATGCT,-1.35
11,GTGTGTCTGTAGTTTTCGTTGTCTAATCCT,1.29
12,GATTGCGCCACTGCATTCCAGCCTGGGGCA,-1.29
13,ATGGCAGACGGGGCTCTCAGAATCTGCCGA,-0.908
14,TGGCCAGTATCCGCCTTCACTCCCCTGACA,1.92
15,TTCCTTCGGGATTATGGTAGGCAGCCTCTG,-1.28
16,GAGAGAAATTGCTTAAGTGCTTGTCAGTTT,1.16
17,AGATGGGGTGAACTTTGGACCACATATAGA,7.98
18,AATTGTGTGGTTATCTGTTGGGGAATCAGT,1.45
19,GCACAAAGTACAAAAGAGGCTTCCTGGGCC,-1.14
20,AAACAAATAATGGCTTTTGCCCTCAAGGAG,2.02
21,CTAGGTCAGCAGTTGTTCAAAGTCCATGTG,5.98
22,GGTCCACAGCTTTGGGCATACAAAACAACC,-1.22
23,CCTAGCTGAGCAGGGGACTAAGAGCAGCCT,-1.1
24,AGACTGGCTCCGCTGCTGCAGAGCAAAGCT,-1.39
25,GAGCACAAGAACAAAAACTGTTTCTATGTG,-1.22

row,Sequence,binding signal (log2 normalized intensity)
1,ACACACAGCACTGCAAACAGTGAGCCCAGT,-1.23
2,AAGGTCAGCGCTTTGGTAGGCTGTATGGCT,-1.2
3,TTGAAGTGCTTCCTGTGTATTTCTTCATCA,0.924
4,AAGCTATCCCTCCATATTGCAGACAGCATA,-1.03
5,TCTGAGTAAACACAGACTTTGGAATCACAA,3.77
6,GTTAGACGCACGGCAGAGCACCTGGATAAG,-1.3
7,AACTATGCTAAGAATGCGAACCATTTCCCA,-1.32
8,GGCTAATGCATGTCCCTCCTCAACCTCTCC,1.05
9,AAGCACTGAGCATACAGAACCCATGCTCTT,-1.24
10,TCACAAGACTGTTATCACAGCTGGCCCACT,-1.22
11,AGGTCCTTGAAAGTAAGCAGACACTGAAAG,-1.28
12,CATCTGCAAGAGAGAATAGATAGTGTGAGG,0.532
13,GGGTCATGCTGGTCTCCTTGCCCCACCCCC,5.73
14,CGTCTTACATTTCTAAAGAACATTCCAGCT,-1.35
15,TGTGACTGATAAATCCCGAGCCAGAGCCAA,-1.44
16,GTGCTCTGGGTCTGTCCTTTGTGTTTATGG,2.63
17,CACTGGCCAAAGGTAATAGGAAAAGGGAGT,-1.29
18,AGCTAGTAGGAGCGGGCTTAACTAGGAGCC,-1.39
19,TATCTTTCTCCTACAGCCTGATGTTGACAG,0.0465
20,CGTCCTGTGGCAAAGGTGAATGACCCCTCC,5.34
21,GAGCTGAAACAGTCTGATTCTAGGGCCCAT,-1.35
22,AAATCCCCCACCATTGTTATCTGATCAAAT,3.42
23,CTGCCTCAAACAGCTTCGCCTCCTCCAAGC,-1.28
24,CTATTAGGTCTTTGAAGTTGTCTTATCACC,1.2
25,ACAATGTGATTTATGAAGGGGGGTGGGGAG,-1.36

row,Sequence,binding signal (log2 normalized intensity)
1,CAGACTGCATTTTCATCTTGCCTTTGCTCC,1.4
2,TTAGGAAAGAGACATCTGGGAACAAGTTCT,-1.25
3,AAAGGAGGCAGAGACTGCCCTGAGCCGCCA,-1.25
4,AATGCAGGCAATGAATAGAACAAATAAAGT,-1.38
5,TTTATCTACCTTTGTACCTTTAGTATCTAG,3.32
6,AGTTTCAGGTTCAAATCTAAACCTAGCAGC,-1.31
7,GTTTCAGCCCTAAAGACCACTGGGCTTTCA,-1.32
8,AGTTTGGGCTGTGAGAAACATCCTGCCTAA,-1.31
9,CCTGGGTTAAAGTCCGTTACAGACAGGCAG,3.95
10,GTTAACAGAATGAACAGCTCTTCTTGCCAG,-1.23
11,TTGGACAGGGTGACGTCATTGGAAATCCGA,0.187
12,ACTGATCTCTGGCTTGATCCCTGAACTTTG,4.37
13,CAGCACCATCCTACAGGGTATGAATTTAAC,-0.872
14,AGTCAAGGCCAAAGGTTAAAAATAAGTTCT,4.29
15,CCAATAACTGCTTCTTTTATGGTGCATTCC,1.53
16,GAATCAGGTTTTCAGAAGGTAGGTAAGGGG,-0.7
17,CCAAAGTCCTTCCCAAGTCCTGCATGTGTT,1.72
18,AGGGAGGGCCAAGCCCTCCATCCAACCATT,3.94
19,GAGGGGAGGAGGGTCAAAACTTCAGACTAT,-0.34
20,TAGATAAGTCCACAAAGATAAGAAAGAATC,-1.32
